Experimental data taken from PubChem BioAssay AID360 (National Center for Advancing Translational Sciences (NCATS), 2006).
Out of some 48,000 compounds screened, about 550 (1.1%) were called active. About 4% were inconclusive and are not listed. No stated cut-off is given here; in the data, active means potency below about 15 µM; inconclusive means mostly about 16 µM to 33 µM; inactive means weaker than that. This is one part of the list.

molecular target: Lysosomal acid glucosylceramidase (Homo sapiens) (UniProt P04062); test: Glucocerebrosidase; conditions: purified enzyme, resorufin glucoside fluorescence (screen aimed at inhibitors), 20 min; series mostly up to 77 µM;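 further: the screen sought inhibitors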
Chain of UniProt P04062 (P04062 whole entry, looked up): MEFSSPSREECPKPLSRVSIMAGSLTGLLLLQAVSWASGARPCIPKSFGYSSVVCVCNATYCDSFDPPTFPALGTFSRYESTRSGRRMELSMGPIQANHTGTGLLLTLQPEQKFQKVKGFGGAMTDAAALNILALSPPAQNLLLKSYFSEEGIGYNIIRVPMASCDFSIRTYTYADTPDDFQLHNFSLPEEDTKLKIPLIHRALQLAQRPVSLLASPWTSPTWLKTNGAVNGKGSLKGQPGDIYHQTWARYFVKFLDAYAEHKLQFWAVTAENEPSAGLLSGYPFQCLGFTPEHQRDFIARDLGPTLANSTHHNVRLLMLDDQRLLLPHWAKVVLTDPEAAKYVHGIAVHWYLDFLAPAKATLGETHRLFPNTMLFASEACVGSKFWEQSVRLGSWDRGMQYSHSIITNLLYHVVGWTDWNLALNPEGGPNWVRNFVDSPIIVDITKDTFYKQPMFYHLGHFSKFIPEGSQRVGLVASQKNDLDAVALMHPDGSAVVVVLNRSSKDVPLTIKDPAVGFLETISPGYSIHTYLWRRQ
In short: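 Compounds titrated against 0.2 nM normal enzyme, 30 uM resorufin beta-D-glucopyranoside substrate, citrate/phosphate buffer with taurocholate and tween-20, pH 5.9. Reaction ran 20 min at room temperature; fluorescence (Ex 548/Em 600) gave AC50.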
Potency means the concentration at half of the fitted maximal effect.

Potency, active:
Cc1sc2ncnc(Sc3nnnn3-c3ccccc3)c2c1C 9.19 µM

Potency, inactive:
CCNc1nc(NC(C)C)nc(N(C#N)Cc2ccccc2)n1 > 76.9 µM
COc1cccc(OC)c1OCCCc1c(C)n[nH]c1C > 76.9 µM
O=C(Nn1c(-c2ccccc2)nc2ccccc2c1=O)c1ccco1
O=C(Nc1nnc(COc2ccccc2)s1)c1ccco1 > 76.9 µM
CC1=C(C)CC(C(=O)c2ccccc2)C(C(=O)O)C1 (centres undefined) > 76.9 µM
Cc1cc(O)cc(O)c1C(=O)Cc1cscn1 > 76.9 µM
O=C(CSc1nncc2ccccc12)N1CCOCC1 > 76.9 µM
CN(C)c1ccc(-c2noc(-c3ccccc3O)n2)cc1 > 76.9 µM
CCOc1ccc(-n2c(-c3ccco3)n[nH]c2=S)cc1 > 76.9 µM
O=C(NC1CCCC1)C1CCN(S(=O)(=O)c2cccc3cccnc23)CC1 > 76.9 µM
CCN(CC)C(=O)c1cc2c(=O)n3cccc(C)c3nc2n1C > 76.9 µM
COc1ccc(NC(=O)C2CC(=O)NC(Nc3cccc(C)c3)=N2)cc1 (centres undefined) > 76.9 µM
Cc1ccc(Nc2nc3nonc3[nH]c2=O)cc1C > 76.9 µM
COc1cccc(N2C(=O)CC(N3CCN(S(=O)(=O)c4ccccc4)CC3)C2=O)c1 (centres undefined) > 76.9 µM
COc1ccc(Cc2nc(-c3ccc(Cl)cc3)no2)cc1 > 76.9 µM
Cc1ccccc1CS(=O)(=O)Cc1ccc(C(=O)N2CCOCC2)o1 > 76.9 µM
CCC(Oc1ccccc1)C(=O)Nc1ccccn1 (centres undefined) > 76.9 µM
COCCCNC(=O)C1CC(=O)N(C2CCCC2)C1 (centres undefined) > 76.9 µM
COc1ccccc1N1CCN(c2nc3ccccc3nc2C(C#N)C(=O)OC(C)C)CC1 (centres undefined) > 76.9 µM
CCOC(=O)CSc1nnc(CNc2cccc(Cl)c2)n1-c1ccccc1 > 76.9 µM
Cc1nc(NCC2CCCO2)c2nnn(Cc3ccccc3)c2n1 (centres undefined) > 76.9 µM
O=C(O)CC(CP(=O)(c1ccccc1)c1ccccc1)C(=O)O (centres undefined) > 76.9 µM
Cc1csc(NC(=O)c2cccc(S(=O)(=O)N3CCCCC3)c2)n1 > 76.9 µM
O=C(NCC12CC3CC(CC(C3)C1)C2)c1nc2ncccn2n1 > 76.9 µM
CC(=O)OCCNC(=O)c1cc2ccccc2oc1=O > 76.9 µM
O=C(Nc1ccc2oc(-c3ccccc3)nc2c1)c1ccc2c(c1)OCCO2 > 76.9 µM
O=C(O)c1ccccc1OCCOc1ccccc1C(=O)O > 76.9 µM
CC(C)(C)OC(=O)N1CCCC1C(=O)NCCc1ccccc1 (centres undefined) > 76.9 µM
Cc1oc(-c2ccc(Cl)cc2)nc1CN1CCCC(C(=O)NCCCN2CCOCC2)C1 (centres undefined) > 76.9 µM
Cc1cc(C(=O)N2CCN(c3ncccn3)CC2)cs1 > 76.9 µM
COc1cc(-c2nnc(-c3cccs3)o2)cc(OC)c1OC > 76.9 µM
CC(=O)C1=C(O)C(=O)N(CCc2c[nH]c3ccccc23)C1c1cccc(O)c1 (centres undefined) > 76.9 µM
COC(=O)c1cccc(Cn2nnc3ccccc3c2=O)c1 > 76.9 µM
COc1ccc(CCNC(=O)Cn2c(-c3nonc3N)nc3ccccc32)cc1OC > 76.9 µM
CCCCOC(=O)C1[C@H]2C(=O)N(c3ccccc3CC)C[C@]23C=C[C@H]1O3 (some centres undefined) > 76.9 µM
Fc1ccccc1N1CCN(Cc2nc(-c3ccccc3)no2)CC1 > 76.9 µM
CCOC(=O)Cc1nnc(NC(=O)CC)s1 > 76.9 µM
CC(=O)c1ccc(N2CCN(C(=O)c3ccc4c(=O)n(-c5ccccc5)c(=O)[nH]c4c3)CC2)cc1 > 76.9 µM
CCC(=O)c1cccc2c1N=CC1=C(CC(C)(C)CC1=O)N2 > 76.9 µM
CCC(=O)Nc1nc(C)cc(SCC(=O)OC)n1 > 76.9 µM
CN(C)S(=O)(=O)N(CC(=O)NCc1ccccc1)c1ccccc1 > 76.9 µM
O=C(NCc1ccccc1)NC1(C(=O)N2CCCC2)CCCCC1 > 76.9 µM
CC(C)(C)c1nc(SCC(=O)NCc2ccco2)c2ccccc2n1 > 76.9 µM
CCN=C1SC(CC(=O)NC(N)=O)C(=O)N1CC (centres undefined) > 76.9 µM
O=C(NCCSCc1c(F)cccc1Cl)c1ccco1 > 76.9 µM
CC(C)Cn1c(N)c(C(=O)CSc2nnnn2-c2ccc(Cl)cc2)c(=O)n(C)c1=O > 76.9 µM
CCOC(=O)N1CCC(NC(=O)CC(NS(=O)(=O)c2ccc(Cl)cc2)c2ccco2)CC1 (centres undefined) > 76.9 µM
Cc1c(C)c2c(C)[nH]nc2oc1=O > 76.9 µM
Cc1ccc(NC(=O)N2CCC(C(=O)NCc3ccccc3)CC2)cc1 > 76.9 µM
CCC1S/C(=C(\C#N)C(=O)NCc2ccco2)N(c2ccc(Br)cc2)C1=O (centres undefined) > 76.9 µM
O=C(NCc1ccco1)c1nc2nc(-c3cccs3)cc(C(F)(F)F)n2n1 > 76.9 µM
N#CC(C(=O)c1ccc(S(=O)(=O)N2CCCCCC2)cc1)c1nc2ccccc2[nH]1 (centres undefined) > 76.9 µM
Cc1cccc2cc(CN(CC3CCCO3)S(=O)(=O)c3ccccc3)c3nnnn3c12 (centres undefined) > 76.9 µM
COC(=O)C1=C(NC(=O)c2ccc(C)c(C)c2)CCS1 > 76.9 µM
CC(=O)NCC(=O)NC1(C(=O)NC2CCCC2)CCCCC1 > 76.9 µM
CCCCc1nc2ccccc2c(=O)n1NC(=O)c1c(O)c2cccc3c2n(c1=O)CC3 > 76.9 µM
CCOC(=O)c1[nH]cnc1C(=O)NC1CCCCC1 > 76.9 µM
COCCN1CSC(=S)N(Cc2ccco2)C1 > 76.9 µM
Cc1cc(C)n(-c2nc(C)nc3c2cnn3-c2ccccc2)n1 > 76.9 µM
COc1ccc(Cn2c(C)nc3c(c2=O)c2nc4ccccc4nc2n3Cc2ccco2)cc1 > 76.9 µM
O=S(=O)(c1cccc2nsnc12)N1CCOCC1 > 76.9 µM
CCOC(=O)C1CCN(C(=O)c2ccco2)CC1 > 76.9 µM
O=C(c1ccco1)N1CCCC(c2ccccc2)C1 (centres undefined) > 76.9 µM
O=c1[nH]c2cccnc2n1Cc1ccco1 > 76.9 µM
CC(=C/C(=O)O)/C=C/c1cccs1 > 76.9 µM
O=C(c1cc(S(=O)(=O)N2CCOCC2)ccc1F)N1CCCc2ccccc21 > 76.9 µM
COC(=O)c1ccc(NC(=O)CN(C)S(=O)(=O)c2ccc(OC)c(C)c2)cc1 > 76.9 µM
COc1ccc(N2CCN(CC(O)c3c[nH]c4ccc(OC)cc34)CC2C)cc1 (centres undefined) > 76.9 µM
O=C(O)Cn1c(-c2ccccc2)nc2ccccc21 > 76.9 µM
CC(=O)N1CCc2cc(S(=O)(=O)NCCC(=O)NCCc3ccc(C)cc3)ccc21 > 76.9 µM
C=CCn1c(SCC(=O)NCc2ccccc2)nnc1-c1ccccc1O > 76.9 µM
Cc1cc(C)n2nc(SCc3cc(=O)n4ccccc4n3)nc2n1 > 76.9 µM
COc1cccc(C=Nc2ccc3c(c2)OCCO3)c1O > 76.9 µM
COCCCNC(CC(=O)Nc1ccccc1C(=O)OC)C(=O)O (centres undefined) > 76.9 µM
CN1C(=O)c2ccccc2C(C(=O)NCCCN2CCCC2=O)C1c1c[nH]c2ccccc12 (centres undefined) > 76.9 µM
O=C(CSc1ccccc1)NCCCN1CCOCC1 > 76.9 µM
CCOC(=O)Nc1cc(C(=O)OCC)c(C)nc1C > 76.9 µM
Cc1cccc2cc(C#N)c(SCCN3CCCCC3)nc12
CCOc1cccc(C(=O)Nc2cccc(-c3nc4ncccc4o3)c2C)c1 > 76.9 µM
CCOC(=O)c1sc(-c2ccccc2)cc1N > 76.9 µM
O=C(Oc1ccc(-c2nc(-c3ccccn3)no2)cc1)c1ccccc1 > 76.9 µM
CC(C)OC(=O)CSc1ncnc2c1cnn2Cc1ccccc1
O=C(NCCc1ccccc1)C1CC(=O)N(C2CCCCCC2)C1 (centres undefined) > 76.9 µM
COc1ccc(S(=O)(=O)N2CCN(S(=O)(=O)c3ccc(C(F)(F)F)cc3)CC2)cc1C > 76.9 µM
Clc1ccc(OCc2nc(-c3ccccn3)n[nH]2)cc1 > 76.9 µM
O=S(=O)(/N=C/N1CCOCC1)c1ccc(Cl)cc1 > 76.9 µM
O=C(C1CCCO1)N1CCN(S(=O)(=O)c2ccccc2)CC1 (centres undefined) > 76.9 µM
CCOC(=O)c1snc(-c2ccc(F)cc2)c1N > 76.9 µM
COc1ccc(Nc2nc(CC(C)=O)ns2)cc1OC > 76.9 µM
O=S1(=O)CCN2C(=N1)SC1=C2CCN(Cc2ccccc2)C1 > 76.9 µM
CCOc1ccc(-n2c(C)nc3c(cnn3-c3ccc(Cl)cc3)c2=O)cc1 > 76.9 µM
Cc1ccc(-c2nn3c(C)nnc3s2)cc1N > 76.9 µM
O=C(CSc1nnnn1Cc1ccccc1)Nc1ccc2c(c1)OCO2 > 76.9 µM
